# From PubChem BioAssay AID1159614 (National Center for Advancing Translational Sciences (NCATS), 2016)
# About 65 (0.1%) of roughly 45,000 compounds were called active. Calls follow the shape of the dose curve; as a rule, active = well fitted activation curve with a large enough effect; inconclusive = small, poorly fitted or top-dose-only effect; inactive = no such curve, though single readings can be large or run the other way. Some of the results follow.
# Biological target: Galactocerebrosidase (Homo sapiens) (UniProt P54803)
# Chain of UniProt P54803 (P54803 whole entry, looked up): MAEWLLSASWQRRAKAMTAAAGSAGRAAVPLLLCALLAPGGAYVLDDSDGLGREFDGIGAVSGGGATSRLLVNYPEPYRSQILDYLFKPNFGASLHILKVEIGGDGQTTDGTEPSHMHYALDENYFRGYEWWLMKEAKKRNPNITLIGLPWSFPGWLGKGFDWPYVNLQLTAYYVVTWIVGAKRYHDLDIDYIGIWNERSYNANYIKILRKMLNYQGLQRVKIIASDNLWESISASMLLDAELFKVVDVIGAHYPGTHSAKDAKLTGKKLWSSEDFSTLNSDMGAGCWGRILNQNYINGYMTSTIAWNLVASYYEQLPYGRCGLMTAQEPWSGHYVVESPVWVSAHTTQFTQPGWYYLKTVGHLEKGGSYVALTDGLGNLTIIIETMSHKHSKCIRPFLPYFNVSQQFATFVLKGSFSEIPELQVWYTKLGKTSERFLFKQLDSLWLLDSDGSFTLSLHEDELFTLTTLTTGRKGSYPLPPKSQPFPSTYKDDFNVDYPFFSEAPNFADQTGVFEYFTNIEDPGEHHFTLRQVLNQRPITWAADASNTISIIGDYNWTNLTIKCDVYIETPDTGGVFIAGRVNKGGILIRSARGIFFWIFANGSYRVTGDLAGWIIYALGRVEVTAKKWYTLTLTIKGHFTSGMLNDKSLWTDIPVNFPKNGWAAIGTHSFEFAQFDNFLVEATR
# Assay: A Novel Cell-Based Assay to Identify Small Molecules for B -Galactocerebrosidase; also: 0% is about no effect; nearly all actives have a fitted effect of over 65% in size
# Settings: 145M-Twi-hGALC-G270D cells (Twitcher mouse brain line with human GALC G270D), HMU-beta-Gal fluorescence, 48 h; series mostly up to 57.5 µM; activation: at the top concentration
# Procedure, shortened: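 Live 145M-Twi cells (Twitcher mouse brain-derived, GALC-null) stably expressing human GALC-G270D, with a wild-type GALC line, were compound-treated. Residual GALC activity was then read as fluorescence from 0.1 mM final HMU-β-gal at pH 5.2; higher signal means activation.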
row,SMILES,activation
1,Cc1c(-c2ccccc2)nc2c(Cl)cccc2c1C(=O)OCC(=O)c1ccc(F)cc1,inactive: -12.6%
2,COc1cc(OC)c(N(C)C(=O)c2c(C)oc3ncn(CC(C)C)c(=O)c23)cc1Cl,inactive: -12.5%
3,CCCSc1ncc(Cl)c(C(=O)Nc2sc3c(c2C(=O)OC)CCCC3)n1,inactive: -2.57%
4,O=C(CSCc1cnn(-c2ccccc2)c1-n1cccc1)NCc1cccc(Cl)c1,inactive: -14.1%
5,N#Cc1c(-n2ncnc2-c2ccc(F)cc2)sc2c1CCCCC2,inactive: -4.38%
6,Cc1ccc(-n2nc(C)c(C(=O)O)c2-n2cccc2)cc1,inactive: -18.1%
7,Cc1ccc(CNC(=O)c2c(C)oc3ncnc(N4CCOCC4)c23)cc1,inactive: -39.2%
8,CCOC(=O)c1c(C)[nH]c(C)c1S(=O)(=O)N(C)CC(=O)Nc1ccc(CC)cc1,inactive: -17.7%
9,COc1ccc(/C=C\c2onc(C)c2S(=O)(=O)N2CCC(C(=O)Nc3cccc(OC)c3)CC2)cc1,inactive: 3.57%
10,Cc1ccc(S(=O)(=O)Nc2ccc3nc(-c4ccc(F)cc4)oc3c2)cc1,inactive: -16.8%
11,CC(C)(C)NC(=O)c1oc2ccccc2c1NC(=O)c1ccccc1F,inactive: -11.6%
12,COc1cc(NC(=O)Cn2c(=O)ccc3cc(S(=O)(=O)N4CCCC4)ccc32)cc(OC)c1,inactive: -34.3%
13,CC1=C(C(=O)N2CCN(c3ccccc3)CC2)C2(CCCCC2)OC1=O,inactive: -19.7%
14,CCC(C)NC(=O)CCC(=O)N1Cc2ccccc2Oc2ncccc21 (configuration not stated),inactive: -15.9%
15,O=C(NCc1ccccc1)c1cc2ccc3cccnc3c2[nH]1,inactive: -6.96%
16,CCc1ccc(-n2c(=O)c3c4c(sc3n(CC(=O)c3ccc(Br)cc3)c2=O)CCC4)cc1,inactive: 5.05%
17,O=C(NCC1(c2ccccc2)CCCC1)C(=O)Nc1cccc(Br)c1,inactive: -7.45%
18,Cc1ccccc1CCNC(=O)C1CCN(S(=O)(=O)c2ccc3c(ccn3C)c2)CC1,inactive: -10%
19,Cc1cccc(C)c1NC(=O)Cn1nnc(C(=O)NCc2ccc(F)cc2)c1N,inactive: -5.41%
20,CCc1nn(C(C)C(=O)N2CCN(c3ccccc3)CC2)c(=O)c2cc3occc3n12 (configuration not stated),inactive: -11.1%
21,Cc1oc2c(C)c3oc(=O)c(CC(=O)N4CCCCC4)c(C)c3cc2c1C,inactive: 3.11%
22,CCCN(CCC)C(=O)C(Cc1ccccc1)NS(=O)(=O)c1ccc2c(c1)c(=O)n(C)c(=O)n2C (configuration not stated),inactive: -7.73%
23,Cc1cccc(N2CCN(C(=O)C3CCN(c4ncnc5c4nc4n5CCCCC4)CC3)CC2C)c1 (configuration not stated),inactive: -16.8%
24,Cn1nnnc1SCCCNCc1cccc(OCc2ccc(F)cc2)c1,inactive: -9.88%
25,COc1cc(Nc2ncc3c(n2)CCN(Cc2cccc(C)c2)C3)cc(OC)c1,inactive: -21.8%

row,SMILES,activation
1,Cn1c(=O)c2c(nc(Oc3ccccc3Cl)n2Cc2ccc(C#N)cc2)n(C)c1=O,inactive: -10.4%
2,Cc1cc(C)c2c(CC(=O)Nc3ccccc3C(F)(F)F)coc2c1,inactive: -10.9%
3,CCc1ccccc1NC(=O)Cn1nc(C(F)(F)F)c2c1CCC2,inactive: -14.4%
4,Cc1nn2c(=O)cc(COC(=O)c3cccs3)nc2s1,inactive: -11.9%
5,COc1ccc(S(=O)(=O)c2c(O)c3ccc(C(=O)Nc4ccccc4)cc3[nH]c2=O)cc1,inactive: -1.51%
6,CCCSc1ncc(Cl)c(C(=O)Nc2nc3ccc(C)cc3s2)n1,inactive: -14.3%
7,CSc1ccc(CCNC(=O)c2ccc3c(Cl)c4c(nc3c2)CCCC4)cc1,inactive: -14%
8,CN(c1ccccc1C(=O)O)S(=O)(=O)c1ccc2[nH]c(=O)oc2c1,inactive: -11.6%
9,CCOC(=O)c1ccccc1NC(=O)Cn1c(=O)n(Cc2nc(C)no2)c(=O)c2ccccc21,inactive: -19.8%
10,O=C(CCn1c(=O)c2ccccc2n(Cc2cccc(Cl)c2)c1=O)NCCc1ccccc1,inactive: -8.03%
11,CCOC(=O)N1CCC(Nc2ccc(Cl)cc2N)CC1,inactive: -14.7%
12,CCS(=O)(=O)c1ncc(Cl)c(C(=O)NCc2ccc(OC)cc2)n1,inactive: -28.5%
13,CCc1nn(CC(=O)Nc2cccc(C(C)=O)c2)c(=O)c2cc3sccc3n12,inactive: -24.2%
14,O=C(NCc1ccccc1)C(=O)NCC(c1ccco1)S(=O)(=O)c1cccs1 (configuration not stated),inactive: -20.2%
15,Cc1ccc(Cl)cc1NC(=O)C1CCCN(c2cnccn2)C1 (configuration not stated),inactive: -6.31%
16,Cc1cccc(NC(=O)C2CCN(c3nnc(C)c4c(C)n(-c5ccccc5)nc34)CC2)c1C,inactive: -21.9%
17,CN(C)c1ccc(C(CNS(=O)(=O)c2ccc(Cl)cc2)N2CCOCC2)cc1 (configuration not stated),inactive: -8.03%
18,Cc1oc(-c2ccc(Cl)cc2)nc1CN1CCCC(C(=O)NCc2ccccc2)C1 (configuration not stated),inactive: -3.02%
19,Cc1ccc(-n2c(COCC(=O)O)nc3cccnc32)cc1,inactive: 1.24%
20,Cc1ccc(Cl)cc1N1CCN(C(=O)c2cc3c(=O)oc4ccccc4c3s2)CC1,inactive: -3.08%
21,CCN1CCN(C(c2ccccc2Cl)c2c(O)cc(C)n(CCOC)c2=O)CC1 (configuration not stated),inactive: -25.7%
22,Cc1ccc(/C=C(\C#N)C(=O)Nc2cccc(Br)c2)o1,inactive: -8.15%
23,CC1CCCN(CCCNC(=O)Cn2ncc3c([nH]c4ccccc43)c2=O)C1 (configuration not stated),inactive: -9.48%
24,Nc1nn(-c2ccccc2)nc1C(=O)OCc1ccccc1,inactive: -6.71%
25,CCCCn1c(=O)nc2n(-c3ccc(Br)cc3)c3ccccc3cc-2c1=O,inactive: 23.8%

row,SMILES,activation
1,CC1(C)CCC(C)(C)c2cc(NC(=O)c3ccc(C(=O)O)cc3)ccc21,inactive: -6.4%
2,CCc1ccc(C2=CC(c3c(F)cccc3Cl)n3c(nc4ccccc43)N2)cc1 (configuration not stated),inactive: -5.5%
3,Cc1ccc(-n2c(SCC(=O)N3CCCc4ccccc43)nc3c([nH]c4ccccc43)c2=O)cc1,inactive: 6.08%
4,CCc1ccccc1-n1nnc(-c2nsc(NC(=O)c3ccc(C)c(C)c3)n2)c1C,inactive: -19%
5,CC(C)(C)C(=O)Nc1ccccc1C(=O)OCc1cc(=O)n2ccsc2n1,inactive: -5.3%
6,CCc1ccc(OCCn2c(C3CC(=O)N(Cc4ccc(F)cc4)C3)nc3ccccc32)cc1 (configuration not stated),inactive: -26.6%
7,COCCCNC(=O)CSC1=Nc2ccccc2C2=NC(CCC(=O)NCc3ccc(OC)cc3)C(=O)N12 (configuration not stated),inactive: -19.2%
8,CCOC(=O)c1c(C)[nH]c(C)c1S(=O)(=O)N(C)CC(=O)Nc1ccc(C)cc1Br,inactive: -16%
9,COc1cccc(C(=O)Nc2nc(-c3ccc(Br)cc3)ns2)c1,inactive: 0.393%
10,CCOC(=O)Cc1ccc(NC(=O)N(Cc2ccc(CC)cc2)Cc2cn[nH]c2-c2ccc(OC)cc2)cc1,inactive: -9.27%
11,N[C@@H](Cc1cc(I)c(Oc2cc(I)c(O)c(I)c2)c(I)c1)C(=O)O,inactive: -20.3%
12,Cc1ccc(S(=O)(=O)N2CCN(Cc3nc4ccc(C)cc4o3)CC2)c(C)c1,inactive: -15.6%
13,Cc1ccccc1OCCn1c(CCNC(=O)C2CCCCC2)nc2ccccc21,inactive: -18%
14,Cc1nc2ccc(S(=O)(=O)NCC(=O)Nc3ccc(F)cc3F)cc2s1,inactive: -5.32%
15,O=C(Nc1ccccc1Cl)N1CCSc2ccccc21,inactive: -14.4%
16,CCOC(=O)Cn1c(=O)n(C2CCCCC2)c2nc(-c3c(F)cccc3Cl)nc(C(N)=O)c21,inactive: -27.1%
17,CC(C)CCn1c(/C=C/c2ccccc2)nc2ccccc21,inactive: -23%
18,Cc1ccc(-c2cn3ccc(C)cc3n2)cc1,inactive: -7.6%
19,Cc1cc(C)cc(NC(=O)CSc2nc3nccnc3c(=O)n2CCc2c[nH]c3ccccc23)c1,inactive: 2.64%
20,Cc1ccc(NC(=O)c2cnc3sc(N4CCOCC4)nn3c2=O)cc1N(C)C,inactive: -8.73%
21,COc1ccccc1C(=O)Nc1sc(Nc2ccccc2)nc1C(N)=O,inactive: -14.8%
22,O=C(c1ccc2c(c1)N(Cc1ccccc1)C(=O)c1ccccc1S2(=O)=O)N1CCN(Cc2ccccc2)CC1,inactive: -12.2%
23,COc1ccc(Nc2nc(C)nc(N)c2S(=O)(=O)c2ccccc2)cc1,inactive: -5.06%
24,COC(=O)c1scc(-c2ccc(C)cc2)c1S(=O)(=O)Nc1cc(C)ccc1OC,inactive: -6.64%
25,Cc1cccc(NC(=O)Cn2c(=O)n(CCCCCC(=O)NCc3ccc4c(c3)OCO4)c(=O)c3sccc32)c1,inactive: -21.3%

row,SMILES,activation
1,COc1cccc(N2CC(NC(=O)c3cc(Cl)ccc3OC)CC2=O)c1 (configuration not stated),inactive: -24.5%
2,Cc1ccc(C(=O)N/C(=C\c2ccc(Cl)cc2)C(=O)NC2CCCCC2)cc1,inactive: 1.88%
3,COc1ccc(OC)c(NS(=O)(=O)c2ccc(N3CCCCS3(=O)=O)cc2)c1,inactive: -16.2%
4,CCOc1ccc(N2CC(NC(=O)C3CCCC3)CC2=O)cc1 (configuration not stated),inactive: -7.44%
5,CCCNC(=O)C1CCC(Cn2c(=O)c3sccc3n(CC(=O)NCc3cccc(OC)c3OC)c2=O)CC1 (configuration not stated),inactive: -4.02%
6,Cc1cc(C)c2c(NC(=O)c3ccccc3)c(C(=O)Nc3ccc(F)cc3)sc2n1,inactive: -9.36%
7,Cc1ccc(C)c(N2CCN(CCCNC(=O)c3ccc4nc(CCc5ccccc5)oc4c3)CC2)c1,inactive: -6.34%
8,COc1ccc(-c2onc(C)c2C)cc1S(=O)(=O)N(C)Cc1ccccc1,inactive: -41.7%
9,Cc1cc(-n2ccnc(NCCc3ccc(S(N)(=O)=O)cc3)c2=O)ccc1Br,inactive: -12.9%
10,COc1ccc(NC(=O)c2ccco2)cc1NC(=O)c1cc(OC)c(OC)c(OC)c1,inactive: -15.3%
11,CC(=O)c1cccc(NC(=O)CN(c2cc(C)cc(C)c2)S(=O)(=O)c2c(C)noc2C)c1,inactive: -5.52%
12,COc1ccc(C(=O)c2sc(Nc3ccccc3)nc2N)cc1,inactive: -4.49%
13,N#Cc1c(C(F)(F)F)cc(-c2cccs2)nc1SCC(=O)Nc1cccc(Cl)c1,inactive: -18.4%
14,Cc1ccc(Cl)cc1NC(=O)CCCn1c(=O)c2cccn2c2cccnc21,inactive: -13.8%
15,COc1ccccc1NC(=O)C1=C(C)Nc2c(C(=O)Nc3cccc(C)c3)cnn2C1c1ccccc1Cl (configuration not stated),inactive: -3.24%
16,COc1ccc(Cl)cc1NC(=O)c1c(NCc2cccnc2)sc2c1CCC(C)C2 (configuration not stated),inactive: -25.4%
17,CC1CCCCN1CCCNC(=O)CN1C(=O)c2cccnc2Oc2ccccc21 (configuration not stated),inactive: -12.1%
18,Cc1ccccc1C(=O)N(Cc1sccc1C)C1CCS(=O)(=O)C1 (configuration not stated),inactive: -5.35%
19,COc1cc(NC(=O)CCn2nc(C)c(S(=O)(=O)N3CCCCC3)c2C)cc(OC)c1OC,inactive: -12%
20,COc1ccc(CCNC(=O)c2ccc(Cn3c(=O)c4ccccc4n(CC(=O)C(C)(C)C)c3=O)cc2)cc1OC,inactive: -17%
21,COCCCNC(=O)c1ccc(Cn2c(=O)c3ccccc3n(Cc3c(C)cc(C)cc3C)c2=O)cc1,inactive: 15.8%
22,COc1ccc(-c2nc3n(n2)C(c2ccc(OC)c(OC)c2)C(C(=O)Nc2cccnc2)=C(C)N3)cc1 (configuration not stated),inactive: -2.32%
